Measurements as given in PubChem BioAssay (Tox21).
Values joined by “and” are separate entries in the source; they are usually repeats but may differ in a detail not shown here. Equal values may be shown once. The shares of active, inactive and inconclusive entries below differ from those in the screen. Potencies beside an inconclusive call are fits to weak or partial responses and may not hold up. Active and inactive are the calls of the source. Calls come from the whole dose curve; as a rule, active = well fitted curve in the direction sought with a large enough effect in the repeat runs; inconclusive = weak or mixed curves; inactive = no such curve, though single readings can be large; an effect the other way counts as inactive or inconclusive.

How the values were obtained:
[1] = qHTS RealTime-Glo MT Cell Viability Assay in HEK293 cells - 24 hour (AID 1224886); details: RealTime-Glo luminescence; series mostly up to 76.8 µM; note: nearly all actives have a fitted effect of over 50% in size
Outline: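 Reads taken at 0, 8, 16, 24, 32 and 40 h from the same wells. HEK293 cells (600/well) carried RealTime-Glo reagents from seeding, with compound added after a 5 h settle at 37 C.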

[2] = qHTS RealTime-Glo MT Cell Viability Assay in HepG2 cells - 16 hour (AID 1224885); details: RealTime-Glo luminescence; series mostly up to 76.8 µM; note: nearly all actives have a fitted effect of over 50% in size
Outline: (§1)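 HepG2 suspension premixed with RealTime-Glo reagents is plated at 600 cells per well and left 5 h at 37 C/5% CO2. Compounds in DMSO then go in, and bioluminescence reflecting viable cell number is recorded over 40 h.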

[3] = qHTS RealTime-Glo MT Cell Viability Assay in HepG2 cells - 0 hour (AID 1224889); details: RealTime-Glo luminescence; series mostly up to 76.8 µM; note: nearly all actives have a fitted effect of over 50% in size
Outline: as §1

[4] = qHTS assay to identify small molecule antagonists of the estrogen receptor alpha (ER-alpha) signaling pathway using the BG1 cell line in the presence of 0.1 nM 17-beta-estradiol - cell viability counter screen (AID 1259241); details: VM7Luc4E2 (BG1) viability, CellTiter-Fluor protease, 22 h, 0.1 nM estradiol agonist added; series mostly up to 92.4 µM; note: nearly all actives have a fitted effect of over 40% in size
Outline: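 Cytotoxicity counter-screen: live-cell protease activity measured by fluorescence (30 min reagent step) in the same wells. Cells were VM7Luc4E2 with endogenous ER-alpha and ERE-driven luciferase, treated 22 hr at 37C alongside 0.1 nM 17beta-estradiol final.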

[5] = qHTS RealTime-Glo MT Cell Viability Assay in HEK293 cells - 8 hour (AID 1224887); details: RealTime-Glo luminescence; series mostly up to 76.8 µM; note: nearly all actives have a fitted effect of over 50% in size
Outline: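 Kinetic, non-lysing viability readout. Seed HEK293 (600/well) with reagent, incubate 5 h at 37 C/5% CO2, pin 23 nL compound in DMSO, incubate at 37 C, read luminescence at 0, 8, 16, 24, 32, 40 h.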
Potency is the fitted concentration of half-maximal effect; tags give direction and shape of the fitted curve.

For O=C=Nc1ccc(Cl)c(Cl)c1, the Potency [1] was “inactive”.

For Cc1cc(C2(c3cc(C)c(O)cc3C)OS(=O)(=O)c3ccccc32)c(C)cc1O, the Potency [2] was inconclusive: 24.6 µM [cytotoxic, partial curve] and inconclusive: 21.9 µM [cytotoxic, partial curve] and the Potency [3] was active: 19.5 µM and active: 15.5 µM.

With Nc1c2c(nc3ccccc13)CCCC2 the Potency [2] was “inactive”, the Potency [1] was inconclusive: 54.9 µM [cytotoxic, partial curve, poor fit] and the Potency [4] was inconclusive: 27.3 µM [cytotoxic, partial curve, poor fit].

With O=C=NCCCCCCN=C=O the Potency [1] was inconclusive: 4.79 µM [rising, full curve].

With NC(=NCCCCCCN=C(N)/N=C(\N)Nc1ccc(Cl)cc1)/N=C(\N)Nc1ccc(Cl)cc1 the Potency [2] was inconclusive: 54.4 µM [cytotoxic, single point] and inconclusive: 23.9 µM [cytotoxic, partial curve], the Potency [1] was active: 10.9 µM [middle of 5 runs] and the Potency [4] was inconclusive: 68 µM [cytotoxic, single point] and inconclusive: 60.9 µM [cytotoxic] and inconclusive: 68.2 µM [cytotoxic, single point].

For CNC(=O)c1ccccc1Sc1ccc2c(/C=C/c3ccccn3)n[nH]c2c1, the Potency [2] was inconclusive: 13.4 µM [cytotoxic, partial curve, poor fit], the Potency [5] was inconclusive: 8.49 µM [cytotoxic, partial curve] and the Potency [3] was inconclusive: 19 µM [cytotoxic, partial curve].
